In the supplement of paper PMC3334620:
The full ranking holds about 33,000 sequences; the median of “E-score (-0.5 to 0.5)” is about -0.036, and the highest 2% start at about 0.37. Some of the results follow.

What follows are sequences tested against T1, Yer064c (UniProt P40041) (assay: PBM E-score (8-mer binding enrichment) (E-score (-0.5 to 0.5)); higher = stronger / more preferred TF binding; most listed sequences are background and not binding sites). Details: protein concentration: 200 nM; construct: GST-full length.
T1 sequence: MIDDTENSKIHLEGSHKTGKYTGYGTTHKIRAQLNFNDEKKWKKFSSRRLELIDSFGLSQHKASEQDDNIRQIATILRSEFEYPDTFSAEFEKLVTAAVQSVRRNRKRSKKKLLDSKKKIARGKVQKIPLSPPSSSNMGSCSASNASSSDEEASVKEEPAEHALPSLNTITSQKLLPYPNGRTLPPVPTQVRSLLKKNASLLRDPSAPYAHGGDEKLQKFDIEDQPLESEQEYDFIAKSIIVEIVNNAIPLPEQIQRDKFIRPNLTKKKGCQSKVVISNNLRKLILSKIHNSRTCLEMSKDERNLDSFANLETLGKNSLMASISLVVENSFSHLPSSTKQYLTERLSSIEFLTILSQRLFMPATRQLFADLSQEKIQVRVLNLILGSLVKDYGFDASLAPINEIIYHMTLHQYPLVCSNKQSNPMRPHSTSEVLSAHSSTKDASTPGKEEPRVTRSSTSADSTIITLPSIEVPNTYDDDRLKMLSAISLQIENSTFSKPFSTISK
Summary of the method: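 The E-score, a modified Wilcoxon-Mann-Whitney statistic, was computed by the Universal PBM Analysis Suite for every ungapped eight-base word pooled with its reverse complement. Scans behind it were normalised with masliner after bound GST-tagged yeast transcription factors were detected with fluorescent anti-GST. The proteins, at about 100-200 nM, had been applied to universal all-10-mer Agilent arrays made double-stranded by primer extension.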

Sequence	PBM E-score
GAGTAGTA	0.0874
CCTACCCG	-0.115
CACATAGC	-0.00061
AGCTATGC	-0.125
CAATGGCA	-0.053
CTACTTAC	-0.0538
CATCTGAC	0.222
AACTATCC	-0.235
GCCGAACC	-0.327
AACAATTA	0.0684
GGTGGGAC	-0.142
AATTCTGT	-0.137
ATTACACC	-0.00721
CTACGCAC	-0.047
CGTTACAC	0.165
GCGTTTCA	-0.149
ACTGAAAG	0.0799
GGTGTCCA	-0.00902
CCCTTGGA	-0.0274
CCAGCGTA	0.00471
AGATGCAC	-0.186
CAAAGTCA	0.399
CTTGCCGC	-0.264
CTATTCGA	0.0375
GAAGCTTC	-0.364

Sequence	PBM E-score
GGTTAGCA	0.025
GAATTCAA	0.0377
GGCATCCA	-0.182
CCGAGGTA	0.0799
AAAAATGC	-0.198
AAGCATTG	-0.159
GAACGGAC	-0.107
GTGGAGCA	-0.0738
AGGAGATC	-0.0771
AGCCTTAA	0.195
AAGGGTAC	-0.103
AACAAGTG	0.114
AATCTTCA	0.254
AGGAAGCC	-0.235
CGACCCAC	-0.0561
CAGCACTA	-0.0499
GCTCCGAA	-0.175
AGTATTCC	0.0206
GTGTTTGA	0.196
ACACTGAT	0.0338
TATTTGCA	0.0422
TGTCCACA	-0.162
AAGTATTG	0.00997
CCCAGTTC	0.00772
GGAGCCGA	-0.12

Sequence	PBM E-score
ACCAGGAC	0.0899
ACAAGAAA	0.102
AGAATGAG	0.22
AGGCGAGA	-0.152
CGTAGGAC	0.128
CCTTTCTA	-0.251
GACACAAA	0.0648
CTCGTGCA	0.17
CGGAATCC	-0.0704
CGCGATAC	-0.206
AATCCATA	0.0696
ACAACGGG	-0.00872
GCTTACTA	0.00123
AGAATCAC	0.374
CCACGTCG	-0.107
ACTCACCG	0.384
CGACTAGA	0.212
CCAGGCTA	-0.271
CCGACGGA	-0.131
GTAGGACA	-0.0812
CATTTGAC	0.0216
CTTGAGCA	-0.00447
ACGGCAAT	0.0667
CAGGCTCG	-0.142
GTCCCAAA	0.0199

Sequence	PBM E-score
CTAACTAC	0.0788
TCACGTGA	0.219
GCGACTCA	0.483
GAAAATTA	0.0285
GGAACAAA	-0.0034
CTAGGACC	-0.266
AGTAGAGA	0.0203
TACCGGAA	-0.0655
CTCGGTAC	0.03
CCCGACAA	-0.0708
CCCGCGTA	-0.204
ACAATGGG	-0.0921
GCGCTCAC	-0.0637
CGTCTGTA	-0.0838
AGTATAAA	0.18
ATGGGCAC	-0.0865
AGGATGAA	-0.103
GAGCGGGC	-0.262
AAAGCTCA	0.00789
AGACAATC	0.123
AGTCCCGG	0.00582
GAAACCCA	-0.0385
CTTAACAA	0.0734
ATCTGTTG	-0.0199
TGAGACCA	0.149

Sequence	PBM E-score
CACGTTAA	-0.0619
GCGCTATA	-0.163
AGCTGCGG	-0.247
ACAGATCG	-0.0843
AAGCCTAG	0.0633
CTGCACGC	-0.246
GCTTATAA	-0.0737
ACCGCAGA	-0.119
TCTCGAGA	0.0622
AGATCAAT	-0.044
AGGTCTAT	-0.125
CTATATGC	-0.0896
CGACGCTA	-0.0421
GATCTAGC	-0.138
CCGATAAG	0.0299
AGCCGAGG	-0.13
AATTTGAA	0.0382
ACATGTTA	0.0588
CTAGTATC	0.0137
CATAAGCA	-0.0777
TAACACCA	-0.0608
AACATACT	-0.144
AGGTGTGC	-0.148
ACATTATG	0.169
AGCCTTAG	0.0677

Sequence	PBM E-score
GATTGAAA	0.212
CCCGTGCA	-0.291
CCTCAGAG	-0.0268
TACGCGCA	-0.102
ACGACAGT	0.0671
AATACTCA	0.329
GTCCCAGA	-0.228
AGTCTGGC	0.0851
CGAACATC	-0.176
AGTGGAGA	-0.0607
CTCACGAC	0.297
AAGGCTGG	-0.14
CCCAAAAG	-0.066
ATAGGGGG	-0.2
ATAGTGGC	-0.204
ATCATACG	0.141
AAGGAACG	-0.167
ATACTGAA	0.0805
AACACCTG	0.0786
AGCCGCCG	-0.073
GTTCTGTA	0.124
CATACTGG	0.0217
ATACGAGC	0.12
AGAACATA	-0.147
ACTTCAGG	0.0199

Sequence	PBM E-score
CAACGCCA	-0.173
TTCCCAAA	-0.0393
CATGCTGA	0.21
GCCCTATA	-0.14
CTTGACAC	-0.11
ATCCGGCC	-0.236
ACGTGCGC	-0.163
TAAAAAGA	0.0523
ACGACGAC	0.0346
ATGTGTAA	0.284
CAGTGCGC	-0.294
GAACATCA	-0.046
GCTCGTCC	-0.0981
AGGCTATG	-0.0211
CCAGGCGC	-0.114
GAGTTAAC	0.132
CGTGATTA	0.393
AACCAGCT	0.0589
AGTCAGAT	0.427
CTGGAACC	-0.0767
ACCCCAGG	-0.0425
CTTAACGC	-0.0621
CGTTGACC	-0.0892
CCAATGGA	-0.00691
CAGCTGGC	-0.0977

Sequence	PBM E-score
GAAGCATC	-0.253
CGAAATAC	-0.109
GTTGCGTA	-0.0379
AAGCTATA	-0.00366
CAAGGGTC	-0.325
AGCAAATA	-0.157
GGCTCTAA	-0.054
CAGCCATG	0.113
AGGTCAAG	-0.0459
CCCGCTTA	-0.012
GCAGCTCC	-0.211
CGTAACGC	-0.199
TACTAGAA	0.112
GGTTAGAA	0.00612
ATCTCGTA	0.0955
CGAGGTGC	-0.148
GCTAGCTA	-0.166
AACGGAGT	0.152
ACGTAAGC	-0.0989
ATGGAGAC	0.174
ATTATATC	-0.0643
CTCGAGTC	0.37
CATGCACC	-0.0155
GAGCCCAA	-0.0756
GGTATGAA	0.101

Sequence	PBM E-score
AAGATTGC	0.0129
CTGCGTGA	0.14
GGGTTGCA	-0.0659
CGGTATTC	-0.252
CCAGATAG	0.0194
AAAGTTAT	-0.007
AGTAACTC	0.136
GTCCCACA	-0.0159
ATGTGCTA	0.0639
AACTTGAG	0.205
CGACCATC	-0.247
CATCCACA	-0.0659
GGACAGGA	-0.084
ACGCTAAG	-0.133
GTAGTACA	0.109
ATCACGAT	0.249
ATCGAAGG	-0.0239
GTGTGAAA	-0.00015
CCCACCGA	-0.0423
GGCAGATA	-0.225
GCCGTCGC	-0.269
CTATCTGA	0.17
CAGGTCAC	-0.174
CGATTTCC	-0.0704
ACGCTTTA	-0.165

Sequence	PBM E-score
TAATCTGA	0.319
GGTTAAGA	0.101
ACGCAGAG	0.0941
CAGGCGAC	0.0705
GGCGATTA	0.206
AGCAAAGG	-0.0425
AATGCTAA	-0.102
AGTGTGGG	-0.117
CTTTTATC	-0.029
GAAACTCC	-0.348
CTTGTCCC	-0.23
ATTTCGAA	0.0289
GGTGAAAC	-0.0236
AGTAAGAC	0.23
ACATGACC	0.047
TCAGATCA	0.0817
GTACGAGA	0.0415
CCGAAGAA	-0.0331
ACGAACCC	-0.252
TATACTCA	0.317
GCTCCTCA	-0.2
ATAATTTC	0.0475
AGTCAGTA	0.42
GTGAGACA	0.332
ATCCTATC	-0.128

Sequence	PBM E-score
GCCAAACC	-0.229
AGTCCTTC	0.326
ATAGGAAA	0.0679
CCCATCCA	-0.112
CGATGCCG	-0.16
CGAGCGGC	-0.145
CAAAGCAA	-0.101
ACTCAACC	0.322
GCCGGCCA	-0.172
ACCCCAAT	-0.114
AATTCCGG	-0.262
AGTCAGTC	0.442
GAGCTAAC	-0.123
CCGGCGTC	-0.209
ACCGCATA	-0.00062
AGTTGACA	0.0818
CAATATAC	-0.00478
CTCGCGTC	0.037
ACACCGAT	0.025
ACAGACAC	0.0396
CCTACATC	-0.331
GCTCATCA	0.184
CGTGCTTA	0.0616
ACTATTCT	0.0667
GCCATCCC	-0.0412

Sequence	PBM E-score
AGTGCTAC	0.021
CAATAACA	-0.171
CCAAGGAC	-0.0257
CAAGCTGC	-0.138
AGAATTGC	-0.164
TGAGCAAA	0.114
TCGATCAA	-0.00739
AGAACGCA	-0.167
TCTGTCAA	-0.0702
CTGTCTGA	0.108
ATGTCCGC	-0.263
TCGGACAA	-0.028
GACATCGC	-0.275
ATAAGGTG	0.133
ATGGTCCA	-0.169
CGTGCATA	-0.0202
TTAGATAA	0.136
CACAAAAC	-0.0441
CCCCATCC	-0.157
GAATTATC	0.0224
CAACAGTC	0.318
CGGTTTCC	-0.127
AATCACGA	0.347
CTCGTATC	-0.0383
AGGTACAT	-0.0479

Sequence	PBM E-score
CCCTAGGA	-0.032
TCGCGGCA	-0.14
CACGACTG	0.238
CCTACGGC	-0.142
ATGCGATC	-0.12
AAACATAC	-0.0564
AGTCCTAC	0.345
GATCATAA	0.213
GGAGGTCA	0.0981
AGGACCAT	0.0303
CATTAATC	0.271
CGAGCTAC	-0.237
AGGTTGCG	-0.0841
TACGGTCA	-0.0997
ACCGTTGC	-0.251
AAATAGGC	-0.292
ATGTCAAG	-0.0582
AGTATGGG	-0.0119
CTAATAGC	0.056
CCCAAATA	-0.123
TAAATGGA	0.0193
GAAGACCC	-0.0698
GTATAAAC	0.0607
AAGTGCGC	-0.106
GAGGCGCA	-0.362

Sequence	PBM E-score
GGAGCCTA	-0.121
CATAAGAA	0.157
CCACGCAG	0.0326
GCGAACCA	0.00685
ATGAAAGG	-0.0528
ATACCGAT	-0.00161
TAAGAAGA	0.135
AAAGATGC	-0.267
TACCTTGA	0.102
AATTATAA	0.0893
CGACTCCC	0.404
ACCATACT	0.0817
GGACACCC	-0.167
ACGAAAGT	0.0566
AAATGAGT	0.427
GCAAGCGC	-0.214
AACCAATC	0.0797
TGGACCCA	-0.0371
AAGCGAGC	-0.1
